Measurements taken from the supplement of paper PMC10126150.
Values marked as one replicate rest on one cluster of the flow cell; about a third of the high ones do not repeat.

Test system: ATP
Assay: switch fluorescence ratio, 500 uM ATP over buffer (Cy3 cluster intensity, sum of 5 cycles each) (fold (ratio)); higher = stronger signal-on switching upon ATP binding; sequences stand for … in TCGTCGGCAGCGTCAGATGTGTATAAGAGACAGTTTTTTTTTTTTTTTTTTTTTTTTT…TC
Conditions: aptamer strand: ATP DNA aptamer (quencher-CACCTGGGGGAGTATTGCGGAGGAAGG + anchor), 100 nM annealed; ATP concentration: 500 uM; one replicate
Procedure, shortened: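 Exposure to 500 uM ATP lasted 15 min at 22 °C before imaging, and a selection-buffer image was taken beforehand, for Cy3-labelled switching-strand clusters on a modified Illumina MiSeq flow-cell annealed to 100 nM quencher-labelled ATP aptamer. Five buffer/ATP cycles were run with NaOH stripping and re-annealing between them. The fluorescence ratio per cluster is summed target-cycle over summed buffer-cycle Cy3 intensity, averaged per switch-domain sequence. Clusters outside 100-1000 RFU were excluded.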

Sequence	switch fluorescence ratio
GTGCCTTGGG	1.01
ATCAATACGC	1.42
GCGGTAATAT	1.14
TAAACACACT	1.2
CGGATCCGGT	0.984
AGTAGTACTT	0.975
TAGTACCAGA	1.01
ATGGCCAGTT	1.04
GTTCCGGGAT	1
TAGCTGCGCC	0.979
ATATTATTGG	1.02
TTGAAAGCCC	1.02
CACATCACGG	1.75
CACACTAAGA	1.01
ATTCGTGATA	1.09
CATATTGATG	0.963
AGAGACGTGC	1
AATCAGGA	0.964
TCCGGGACAT	1.07
CGGCGCAGG	1.21
TCACCTAAGG	1.03
CACACCGTGT	0.954
TCGGGTCAAC	1.01
TTCGGAAAT	0.971
GGTAGATGAA	1.01
GATGCTCAGA	1.02

Sequence	switch fluorescence ratio
TGGGATCACG	0.984
TAACGTACAG	1.67
AGGACTCT	1
GGGATACCGT	1.05
ATGCTAAGGC	0.988
AACGTGTCGG	0.964
ATTTGGACAT	1.05
CAACCATTAG	0.994
AAGAAGACAT	0.988
GCGCTTGAAA	1.01
TATCTACCCA	1.02
TCACTCAGTG	1.01
TTTTAGAACT	1.01
GGCAATATGA	2.16
GATACAGTAT	1.1
TCTTGTGAA	1.01
CGGGGACTGT	1.01
GTCGATATGT	0.984
ACTCTTCTCG	1.04
TGCCACTTTA	1.09
CTATGATGTT	1.01
GACGTGCCAA	1.16
GATAAGTCCG	0.985
CCTGGACATC	1.1
ATCCCTAGGG	1.32
TCGTTTTCGC	1.1

Sequence	switch fluorescence ratio
CCAGTAAGGT	1
ACGTGGCTC	1.08
AGCTGAGAAC	0.987
GGTTGAGCTT	0.982
TATGGAAACA	0.963
AGGTGATTAA	1.02
CTCGTTAATC	1.23
TCTTCGATTA	1
CGTTCGTCGC	1.02
ACGTTATGGA	1.15
CTGTTACACG	1.03
TTACATTACT	1.36
ATGAAACTAA	1.1
CTCGAGAGAG	0.983
CGAATACAGA	1.05
TTGTTCGGAA	1.03
CGCAACGGGG	1.24
CTTATTGTTG	0.957
CTTTCTGTTC	1.1
CAGGTCACGA	0.988
GGTCTGACGG	1.01
ACAATGTTGA	1.03
GGAATCGTAT	1.01
CAAGATATGG	0.994
AAACGAAGTA	1.03
CTACGTCT	1.11

Sequence	switch fluorescence ratio
TGACCCCTTC	1.06
ACCTCGGCTT	1.25
CTTTCCACTG	1.08
ACAGCGAGTG	0.936
GCCAGGAAGC	0.952
AGGAAAGTA	1.01
AGTGCTTC	0.967
AAACCACCCT	1.26
TCGGGAGTGT	1.01
TTATCCACCA	1.07
TGTAGTTCAT	1.01
TAAGTGTTAA	1.01
AAGCAGTATA	1
TCTGCTCGGT	1.02
TTGACAGGAG	0.994
CGTCGATGGG	0.997
GATGTGGAGT	1
GGTATGGGCA	1.09
CACGGTTGTA	0.977
TAGGACTACG	1
CTTGGGCGGG	1.01
AGCTTGCTC	1.07
TCCCTTCGGC	0.959
TGTGTAGGGC	1.05
CATGGGCTTC	0.965
AGGTAGTCGG	0.981

Sequence	switch fluorescence ratio
TTTTGGGC	0.98
CAGGAATACG	2.54
CGTATTGTAA	0.975
GGTTAATTTC	0.97
ACACTTAGTT	1.05
ATGTGAATT	0.978
TAATCGGGTC	1.01
TACGCCAACA	1.18
TCTGGCCTGT	1.01
AAGTAGGGTG	0.94
TCGTCCCCTT	1.08
GAAAACGTCG	1.01
CTGTCATACT	1.38
TGCGGGAAAT	0.968
GTATCGCCCC	1.05
ATATCTTCAT	1.03
AAAGTTATTT	1.05
AATATATGAG	0.977
CCACATGCCA	1.04
TGGGCCTTCG	1.24
TAGCAGTCCT	1.07
ATGTCTTGGT	1
AATAAAACAT	1.01
ACGATACTGG	1.49
AATCTTTATC	0.98
CATCTTAT	0.978

Sequence	switch fluorescence ratio
CCAGCGAGCA	1.04
AGTTCGTTAT	0.995
CCGACTTGGT	1.08
ATAAAACTTC	1.06
GCTTCGAGGC	1.02
AGCAAAATCC	1.26
CATATCAGTC	1.04
GAAAGGATCT	1.03
TTATGGTCCC	1.02
GTAACTTTGG	0.959
TATTGCGCCC	1.01
AAAACGCAGC	1.14
TGCTAAATCG	0.955
ACCACTCTCA	0.992
TTTCAGCGG	0.984
GCGTTGTGCG	0.957
TGCTTTACCT	1.23
TCGACGTTAG	1.05
CTAATAGGG	0.94
TCAGAAATTA	1.01
GATGAAGGAT	0.981
TTGAGAAGCA	0.992
TGGCAGCCTC	0.968
TCTTGTAAAC	1.03
TAAGATCGGG	0.965
ACGTTCCCGC	2.27

Sequence	switch fluorescence ratio
ACAAGCTTCC	2.9
GTTTAAGCCA	1.02
TAGGAAAGAG	1.01
TGACGGCGCG	0.999
TCCGGAGCAG	1.93
GCACATAAAT	1.06
AATAGGGCAC	1.01
TTGTATAT	1.03
ATCAACCATT	1.04
ACTGTCACTA	1.14
CTAGGGGA	1.15
CGAAGTAGCT	1.03
TGCTGCGATA	1.33
GTTAAACGAA	0.978
CGCGTAGTGG	1.02
TCAAAGAGCG	1.02
CTGTTAGCA	1.22
GCCGTCGCAT	0.992
GTAATGTAAT	0.981
TAATAGTCAG	1.02
GCCGCGTCTT	1.02
CTCTGAAACG	1.07
GGCGATTGAC	0.998
ATGACTGGGT	1.02
TAAAAGGCTT	0.952
AAATTAATAG	1.03

Sequence	switch fluorescence ratio
TCAGACTCTC	1.42
TCTATTCGCA	1
TATCCATCCG	1.03
GTTACGACAA	1.06
CTGTTGTCTA	1.02
GCTTTCCTCA	1.26
ACCTACAGTC	1.21
AAACTGACCA	1.1
GTTGACGGGC	0.984
ATTGGCTAGC	1.02
AACGTCTTAC	1.18
GAAATTGTTG	0.976
CCGTATGTAC	4.96
GTGGTGTGC	1.01
ACACATCAAG	1.03
TTTCGTTATA	1.53
GTAAAGCGCG	1.06
TATATGGCTA	0.991
TCGCAGCCAT	2.4
